Results published in PubChem BioAssay (NCATS).
This is one part of the list. Further columns of the screen follow, without active or inactive calls. Compounds called inactive in the main read-out are mostly missing here. Words in brackets tell the shape of the fitted curve; partial curves, single points and poor fits give uncertain potencies.
Tags give direction and shape of the fitted curve.

Assay: qHTS Assay for Lipid Storage Modulators (AID 1519)
Conditions: Drosophila S3 cells, BODIPY lipid droplet/cell ratio, laser cytometry; measured here: lipid (BODIPY) channel AC50; cells loaded with oleic acid
How it was run: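 Cells seeded at 5,000 per well were treated with compounds over a concentration series and loaded with oleic acid (400 uM, as added). Lipid droplet fluorescence (488 nm excitation, 500-530 nm channel) was read by laser-scanning cytometry and normalized to 20 uM Triacsin C.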
With `COc1cccc(Nc2ncc3nc(-c4cccs4)c(=O)n(CCC#N)c3n2)c1` the AC50 was 39800 nM [falling, single point]. With `COc1cccc(-c2nc(N(C)Cc3ccco3)c3ccccc3n2)c1` the AC50 was 708 nM [rising, full curve]. With `COc1cccc(Cn2c(=O)c(CCc3ccccc3)nc3cnc(N(C)C)nc32)c1` the AC50 was 447 nM [rising, full curve, poor fit]. For `CCNc1ncc2nc(-c3cccc(C#N)c3)c(=O)n(CCC#N)c2n1`, the AC50 was 25100 nM [falling, single point]. For `CN(C)C(=O)c1ccc(-c2nc(-n3ccnc3)c3ccccc3n2)cc1`, the AC50 was 316 nM [rising, full curve]. In the case of `Cc1c(-c2ccc(O)cc2)nn(-c2ccc(O)cc2)c1-c1ccc(OCCN2CCCCC2)cc1`, the AC50 is reported as 31600 nM [rising, partial curve]. For `COc1cccc(-c2cncnc2NCCc2c[nH]c3ccc(OC)cc23)c1`, the AC50 was 447 nM [rising, full curve]. With `COc1ccc2[nH]cc(CC(N)C(=O)O)c2c1` (stereo not given) the AC50 was 15800 nM [rising, partial curve]. In the case of `FC(F)(F)c1ccccc1-c1nc(NC2CC2)c2ccccc2n1`, the AC50 is reported as 2820 nM [rising, partial curve]. With `CN(C)c1ccc(-c2nc(NCCc3cnc[nH]3)c3ccccc3n2)cc1` the AC50 was 1780 nM [rising, full curve, poor fit]. With `CC(=O)OC1CCC2(C)C3CCC4(C)C(CC5CCCCC54C(C)=O)C3CC(=O)[C@@]2(O)C1` (stereo not given in full) the AC50 was 28200 nM [rising, partial curve, poor fit]. With `CCCCCCCCCCCCC(=O)N1CCCC[C@H]1CNC(=O)[C@@H](N)CCCCN` the AC50 was 35500 nM [rising, partial curve]. With `CCCn1c(=O)c2[nH]c(-c3ccccc3)nc2n(CCC)c1=O` the AC50 was 1780 nM [rising, full curve]. With `CC(=O)NCCNc1nc(-c2ccc3c(c2)OCO3)nc2ccccc12` the AC50 was 20 nM [rising, full curve, poor fit]. In the case of `COc1ccc(-c2nc3cnc(OC)nc3n(Cc3cccs3)c2=O)cc1`, the AC50 is reported as 6310 nM [rising, full curve]. In the case of `COc1cc2c(cc1OC)C1C(=O)c3ccc4c(c3OC1CO2)C=CC(C)(C)O4` (stereo not given), the AC50 is reported as 562 nM [falling, full curve]. For `CN(Cc1ccco1)c1ncnc2ccc(-c3ccccc3C#N)cc12`, the AC50 was 891 nM [rising, full curve, poor fit]. With `COc1ccccc1CNc1cc(-c2ccccc2C)ncn1` the AC50 was 1780 nM [rising, partial curve]. For `COc1ccc(-c2nc3cnc(N4CCOCC4)nc3n(Cc3cccs3)c2=O)cc1`, the AC50 was 2240 nM [rising, full curve]. With `COc1c2ccoc2nc2c(OC)c(OCC(O)C(C)(C)O)ccc12` (stereo not given) the AC50 was 2240 nM [rising, full curve]. For `NC[C@@H]1O[C@H](c2ccccc2)Cc2c1ccc(O)c2O`, the AC50 was 7080 nM [rising, full curve]. For `CC(=O)[C@@H]1[C@H]2[C@H](C(=O)[C@H]3OC[C@@H]2O3)[C@H]2C=Cc3ccccc3N21`, the AC50 was 25100 nM [rising, partial curve]. With `COc1ncc2nc(-c3ccccc3)c(=O)n(CCC#N)c2n1` the AC50 was 1260 nM [rising, full curve]. With `O=C(O)C1CN(CCCP(=O)(O)O)CCN1` (stereo not given) the AC50 was 25100 nM [falling, partial curve, poor fit]. With `CCOC(=O)c1ccc(OC(=O)CCCCCN=C(N)N)cc1` the AC50 was 28200 nM [rising, partial curve, poor fit]. For `c1ccc2sc(N3CCN(Cc4ccc5c(c4)OCO5)CC3)nc2c1`, the AC50 was 14100 nM [rising, full curve, poor fit]. For `COC(=O)Nc1ccc2[nH]cc(CCNC(C)=O)c2c1`, the AC50 was 15800 nM [rising, partial curve, poor fit]. For `C=CC1=C(C)C2=Cc3c(C=C)c(C)c4[n]3[Sn+2][n]3c(c(C)c(CCC(=O)O)c3=CC3=NC(=C4)C(C)=C3CCC(=O)O)=CC1=N2`, the AC50 was 158 nM [rising, full curve, poor fit]. In the case of `COc1ccc2[nH]cc(CCNc3ncncc3-c3ccc(C(=O)N(C)C)cc3)c2c1`, the AC50 is reported as 158 nM [rising, full curve]. For `CN(C)C(=O)c1ccc(-c2cncnc2NCc2cccnc2)cc1`, the AC50 was 3550 nM [rising, full curve]. In the case of `C=CC(C)(C)c1[nH]c2ccccc2c1C1=C(O)C(=O)C(c2c[nH]c3c(CC=C(C)C)cccc23)=C(O)C1=O`, the AC50 is reported as 14100 nM [rising, partial curve]. In the case of `CC(C)=CCc1c2c(c3occ(-c4ccc(O)c(O)c4)c(=O)c3c1O)C=CC(C)(C)O2`, the AC50 is reported as 31600 nM [falling, single point]. For `O=c1cc(-c2ccc(O)cc2)oc2cccc(O)c12`, the AC50 was 31600 nM [rising, partial curve, poor fit]. In the case of `O=c1c(-c2ccc(Cl)cc2)nc2cnc(N3CCOCC3)nc2n1Cc1ccc(F)cc1`, the AC50 is reported as 1000 nM [rising, full curve]. For `COc1ccc(Oc2ncc3nc(-c4ccc(Cl)cc4)c(=O)n(C)c3n2)cc1`, the AC50 was 56.2 nM [rising, full curve, poor fit]. For `Fc1ccc(Nc2nc(-c3ccoc3)nc3ccccc23)cc1`, the AC50 was 794 nM [rising, full curve]. For `O=C1c2ccccc2C(=O)c2c1ccc(O)c2O`, the AC50 was 15800 nM [rising, partial curve]. With `COC(=O)N1CCC2(CC1)CCN(c1ncccn1)CC2` the AC50 was 1000 nM [rising, full curve]. For `N#CCCn1c(=O)c(-c2cccs2)nc2cnc(Nc3ccccc3)nc21`, the AC50 was 5620 nM [falling, full curve, poor fit]. In the case of `COc1cccc(-c2cc(NCc3ccccc3OC)ncn2)c1`, the AC50 is reported as 200 nM [rising, full curve].
